The full ranking holds about 81,000 sequences; the median of “one-hybrid fitness for binding parS DNA” is about -0.17, and the highest 2% start at about 0.51. Some of the results follow.
B1: Caulobacter ParB omega fusion; a variant is named by its letters at X, in order, B8GW30 (parent)
chain: MESVVVGEPGMSEGRRGLGRGLSALLGEVDAAPAQAPGEQLGGSREAPIEILQRNPDQPRRTFREEDLEDLSNSIREKGVLQPILVRPSPDTAGEYQIVAGERAWRAAQRAGLKTVPIMVRELDDLAVLEIGIIENVQRADLNVLEEALSYKVLMEKFERTQENIAQTIGKSXSHVANXMRLLXLPDEVQSYLVSGELTAXHARAIAAAADPVALAKQIIEGGLSVRETEALARKAPNLSAGKSKGGRPPRVKDTDTQALESDLSSVLGLDVSIDHRGSTGTLTITYATLEQLDDLCNRLTRGI

Variants of: B1
Test: one-hybrid fitness for binding parS DNA (scaled: cognate 1, non-cognate 0); higher = stronger binding
Details: with parS DNA site
Method in brief: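 In E. coli USO, a HIS3 reporter with its site placed 19 bp from the promoter was used to select Caulobacter ParB variants randomised at four specificity codons. Growth lasted 48 hours at 37°C on histidine-free M9 containing 0.1 mM IPTG and 5 mM 3-AT. Fitness was taken as the log change in variant-to-wild-type read ratio from Illumina sequencing of pre- and post-selection plasmids, rescaled between the non-cognate and cognate sites.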

Variant | one-hybrid fitness for binding parS DNA
EVPS | ≤ 0.2
NVPP | ≤ 0.2
PHWR | ≤ 0.2
QLYD | ≤ 0.2
RKKR | ≤ 0.2
FRNG | ≤ 0.2
FLHG | ≤ 0.2
RLCA | 0.609
SHRD | ≤ 0.2
QNIL | ≤ 0.2
RRWW | ≤ 0.2
NFDR | ≤ 0.2
FSYS | ≤ 0.2
PWVI | ≤ 0.2
STRG | ≤ 0.2
RWYN | 0.223
SRCY | ≤ 0.2
TVPC | ≤ 0.2
WCYS | ≤ 0.2
PMAS | ≤ 0.2
DDSF | ≤ 0.2
GIDR | ≤ 0.2
GCMR | ≤ 0.2
NGGN | ≤ 0.2

Variant | one-hybrid fitness for binding parS DNA
PIAM | ≤ 0.2
PMAG | ≤ 0.2
ADQS | ≤ 0.2
EDHG | ≤ 0.2
CFGC | ≤ 0.2
QYNE | ≤ 0.2
LMDK | ≤ 0.2
WSKG | ≤ 0.2
QDNQ | ≤ 0.2
REHY | ≤ 0.2
NSTA | ≤ 0.2
IDTG | ≤ 0.2
CNCM | ≤ 0.2
TDQR | ≤ 0.2
QPAG | ≤ 0.2
PFAN | ≤ 0.2
VDVR | ≤ 0.2
YKDW | ≤ 0.2
PYYF | ≤ 0.2
YQQD | ≤ 0.2
TYSN | ≤ 0.2
TMSS | ≤ 0.2
VWTC | ≤ 0.2
PHSF | ≤ 0.2

Variant | one-hybrid fitness for binding parS DNA
AWQG | ≤ 0.2
IVSR | ≤ 0.2
PFGR | ≤ 0.2
ICDS | ≤ 0.2
QIMD | ≤ 0.2
HEAL | ≤ 0.2
RHHE | ≤ 0.2
NIWS | ≤ 0.2
TCMK | ≤ 0.2
ECMS | ≤ 0.2
DKAR | ≤ 0.2
KKNT | ≤ 0.2
WGRI | ≤ 0.2
RMNI | ≤ 0.2
GSHP | ≤ 0.2
QQIT | ≤ 0.2
ESVM | ≤ 0.2
YREW | ≤ 0.2
MHEG | ≤ 0.2
ALNY | ≤ 0.2
MKSR | ≤ 0.2
RVWL | ≤ 0.2
PSSC | ≤ 0.2
RCQK | ≤ 0.2

Variant | one-hybrid fitness for binding parS DNA
SHWC | ≤ 0.2
INCG | ≤ 0.2
LQYM | ≤ 0.2
KHLC | ≤ 0.2
KKPY | ≤ 0.2
RWCP | ≤ 0.2
EVMV | ≤ 0.2
GNWR | ≤ 0.2
NPIT | ≤ 0.2
LESV | ≤ 0.2
TGPL | ≤ 0.2
MNKR | ≤ 0.2
ALME | ≤ 0.2
LTTP | ≤ 0.2
TCLI | ≤ 0.2
VHRR | ≤ 0.2
LMET | ≤ 0.2
HACT | ≤ 0.2
HKAG | ≤ 0.2
KLTL | ≤ 0.2
VTPS | ≤ 0.2
VHIG | ≤ 0.2
DGRY | ≤ 0.2
TILV | ≤ 0.2

Variant | one-hybrid fitness for binding parS DNA
AIYV | ≤ 0.2
QTWT | ≤ 0.2
QYSM | ≤ 0.2
SKPI | ≤ 0.2
YDPM | ≤ 0.2
TRRG | ≤ 0.2
PDLS | ≤ 0.2
HSMI | ≤ 0.2
AVAL | ≤ 0.2
TVLQ | ≤ 0.2
FKCS | ≤ 0.2
TICV | ≤ 0.2
DRHA | ≤ 0.2
PPVG | ≤ 0.2
GATE | ≤ 0.2
LLAC | ≤ 0.2
PGHW | ≤ 0.2
DNRI | ≤ 0.2
QRID | ≤ 0.2
VPYR | ≤ 0.2
QDKI | ≤ 0.2
MDSS | ≤ 0.2
PMKY | ≤ 0.2
MLNW | ≤ 0.2

Variant | one-hybrid fitness for binding parS DNA
VSPR | ≤ 0.2
MHWS | ≤ 0.2
YSLL | ≤ 0.2
TCYH | ≤ 0.2
IESG | ≤ 0.2
TNKL | ≤ 0.2
IGYR | ≤ 0.2
GPTW | ≤ 0.2
DASF | ≤ 0.2
RGSQ | ≤ 0.2
REWT | ≤ 0.2
TLIY | ≤ 0.2
VQPW | ≤ 0.2
GRTW | ≤ 0.2
ECRG | ≤ 0.2
KCQS | ≤ 0.2
NHSG | ≤ 0.2
TPYI | ≤ 0.2
EDLD | ≤ 0.2
ATRF | ≤ 0.2
VFAG | ≤ 0.2
GDNV | ≤ 0.2
TGEF | ≤ 0.2
QCIL | ≤ 0.2

Variant | one-hybrid fitness for binding parS DNA
QQWC | ≤ 0.2
ISRT | ≤ 0.2
LFQG | ≤ 0.2
HMNL | ≤ 0.2
WTFI | ≤ 0.2
DLAG | ≤ 0.2
SLFM | ≤ 0.2
TTKM | ≤ 0.2
DIGS | ≤ 0.2
QSAK | ≤ 0.2
TASF | ≤ 0.2
PHDN | ≤ 0.2
RHHS | 0.914
WVFS | ≤ 0.2
SMWA | ≤ 0.2
HMLM | ≤ 0.2
VGAC | ≤ 0.2
PPLI | ≤ 0.2
GHWM | ≤ 0.2
YYCR | ≤ 0.2
NANA | ≤ 0.2
DIYG | ≤ 0.2
VSIR | ≤ 0.2
AGLS | ≤ 0.2

Variant | one-hybrid fitness for binding parS DNA
HNGA | ≤ 0.2
VDDD | ≤ 0.2
NTYT | ≤ 0.2
TNKV | ≤ 0.2
KAMI | ≤ 0.2
WTQG | ≤ 0.2
FEYV | ≤ 0.2
WAHG | ≤ 0.2
VPTW | ≤ 0.2
DQSF | ≤ 0.2
QDEM | ≤ 0.2
GNNT | ≤ 0.2
YKPT | ≤ 0.2
PHIQ | ≤ 0.2
VMQW | ≤ 0.2
QSAW | ≤ 0.2
GASQ | ≤ 0.2
LHHG | ≤ 0.2
YKNA | ≤ 0.2
LMIR | ≤ 0.2
NSRR | ≤ 0.2
PTYM | ≤ 0.2
HWVG | ≤ 0.2
DGAP | ≤ 0.2

Variant | one-hybrid fitness for binding parS DNA
PEGA | ≤ 0.2
TFRV | ≤ 0.2
MLSR | ≤ 0.2
RQTE | ≤ 0.2
KRAR | ≤ 0.2
SNVF | ≤ 0.2
ELTC | ≤ 0.2
TWEL | ≤ 0.2
ARNS | ≤ 0.2
RIYW | 0.296
RFAM | 0.254
VTMI | ≤ 0.2
RHNW | ≤ 0.2
AIMF | ≤ 0.2
DMVG | ≤ 0.2
NYEF | ≤ 0.2
QQDR | ≤ 0.2
CVER | ≤ 0.2
ETSN | ≤ 0.2
TYKL | ≤ 0.2
CLVL | ≤ 0.2
VMWG | ≤ 0.2
LAMC | ≤ 0.2
SPSL | ≤ 0.2

Variant | one-hybrid fitness for binding parS DNA
RWRG | 0.881
NTYF | ≤ 0.2
GQLC | ≤ 0.2
PGFC | ≤ 0.2
FFIS | ≤ 0.2
PTLF | ≤ 0.2
SVHF | ≤ 0.2
GTKN | ≤ 0.2
SEYI | ≤ 0.2
TMTW | ≤ 0.2
MINP | ≤ 0.2
ACPF | ≤ 0.2
VVRS | ≤ 0.2
RKLQ | ≤ 0.2
CFAG | ≤ 0.2
GCNS | ≤ 0.2
LFST | ≤ 0.2
WRNR | ≤ 0.2
HQQD | ≤ 0.2
RKMH | ≤ 0.2
RCED | ≤ 0.2
ARKH | ≤ 0.2
HKTK | ≤ 0.2
PMIT | ≤ 0.2

Variant | one-hybrid fitness for binding parS DNA
WNYG | ≤ 0.2
GEKR | ≤ 0.2
SAQC | ≤ 0.2
ADLM | ≤ 0.2
CQPL | ≤ 0.2
REGG | 0.2
KSQV | ≤ 0.2
RGGY | ≤ 0.2
HCAA | ≤ 0.2
HLNS | ≤ 0.2
MTGC | ≤ 0.2
AHCS | ≤ 0.2
MSSR | ≤ 0.2
IQTT | ≤ 0.2
PLSD | ≤ 0.2
KSLG | ≤ 0.2
VTNS | ≤ 0.2
PCSS | ≤ 0.2
RVMN | 0.388
APAW | ≤ 0.2
KLKC | ≤ 0.2
EISW | ≤ 0.2
DWSA | ≤ 0.2
YAKW | ≤ 0.2

Variant | one-hybrid fitness for binding parS DNA
QYDG | ≤ 0.2
EGYA | ≤ 0.2
HGYS | ≤ 0.2
AFYC | ≤ 0.2
YTQT | ≤ 0.2
EVHT | ≤ 0.2
DQES | ≤ 0.2
HTQA | ≤ 0.2
QAKR | ≤ 0.2
WTQA | ≤ 0.2
TVRH | ≤ 0.2
IQNY | ≤ 0.2
NNTV | ≤ 0.2
LVPN | ≤ 0.2
QTCE | ≤ 0.2
AAMR | ≤ 0.2
LLDL | ≤ 0.2
QWHW | ≤ 0.2
PTRW | ≤ 0.2
HYDE | ≤ 0.2
CDVS | ≤ 0.2
YRRS | 0.382
TEHW | ≤ 0.2
IRYV | ≤ 0.2

Variant | one-hybrid fitness for binding parS DNA
RIYK | ≤ 0.2
AHGI | ≤ 0.2
RLNQ | ≤ 0.2
YRKG | 0.26
WAAL | ≤ 0.2
HPRD | ≤ 0.2
SSMM | ≤ 0.2
RWRF | ≤ 0.2
GSDK | ≤ 0.2
WPPT | ≤ 0.2
PPVC | ≤ 0.2
TYNY | ≤ 0.2
TPHV | ≤ 0.2
TRAH | ≤ 0.2
ALTI | ≤ 0.2
RRQI | ≤ 0.2
IDNI | ≤ 0.2
GLDR | ≤ 0.2

— a collection of fitness landscapes (doi:10.1016/j.celrep.2020.107928)
